Experimental findings from patent US20260167677A1, “ANTI-ADAM10 ANTIBODIES AND USES IN TREATMENT OF CANCER” (Memorial Sloan Kettering Cancer Center, priority 2022, published 2026) are described below.

The test system of one data set is Notch1 in COLO205 cells. Kind of data set: Sandwich ELISA of total and cleaved Notch1 in COLO205 cells. It counts as cell-based, human. Particulars: COLO205, 5 μg/ml, 10, 18 and 36 hours. Here is the method:
Ligand-activated Notch signaling requires sequential cleavage of Notch by ADAM10 (which is the α-secretase for Notch) and by γ-secretase, releasing the Notch intracellular domain (NICD) in the cytoplasm (Hartmann et al., 2002).
The COLO205 cells were harvested in the log phase of growth (after 3 days of culturing), adjusted to 5×10^4 cells/ml, and allowed to adhere and grow for 24 hours in six-well cell culture plates (Greiner bio-one). […] The PathScan® total Notch1 sandwich ELISA kit was used to measure total Notch1 according to the manufacturer's protocol (Cell Signaling Technologies). Briefly, the cells harvested at different time points were resuspended in 1X lysis buffer containing 1 mM PMSF, sonicated on ice and centrifuged for 10 min (×14,000 rpm) at 4° C. The supernatant, which is the cell lysate, was used for further study, 100 μl of the lysates (diluted to 1 mg/ml) from the different time intervals was added to the microwells (in quadruplicate) coated with a Notch1 rat antibody. This antibody captures the total Notch1 (cleaved plus uncleaved) from the lysates. After extensive washing, a Notch1 rabbit antibody was added to detect the total captured Notch1 protein. To detect Notch intracellular domain (NICD1), PathScan® cleaved Notch1 (Val1744) sandwich ELISA Kit (Cell Signaling Technologies) was used. […] The data was recorded at 450 nm. […]

In data set [1] the test system is xenografted COLO205 cells. Kind of data set: Mouse model of CRC using xenografted COLO205 cells. The class given is in vivo. Here is the method: For the mouse model, COLO205 cells were grown in monolayer culture, harvested by trypsinization, and implanted subcutaneously into the right flank of 6- to 8-week-old female athymic nude mice. Approximately 10 million cells were injected per mouse. Mice were randomized into 4 groups (each n=4).
Tumor volume was determined by external caliper and calculated by the modified ellipsoidal formula: V=½(Length×Width^2). Antitumor efficacy was calculated as (1-dT/dC)[…], where dT is the final tumor volume minus the starting tumor volume from the treatment group, and dC is the final tumor volume minus the starting tumor volume of the control group (Rios-Doria et al., 2015). Error bars were calculated as SEM. The mouse body weight and general health were monitored daily.
In a second study, 1H5 at two different doses was used in the mouse model. For the mouse model, approximately five million cells were implanted (subcutaneous with Matrigel) into 6- to 8-week-old female athymic nude mice. Mice were randomized into 3 groups (each n=5).

For a further data set, the system named is LIM1215. Kind of data set: Alamar blue cell viability assay, LIM1215. The class given is cell-based, human. The conditions noted are these: LIM1215, 20 μg/ml. Here is the method: For the Alamar blue cell viability assays, the cells were harvested in the log phase of growth (after 3 days of culturing). The cell count was determined and was adjusted to 5×10^4 cells/ml. […] The cells were allowed to grow for an additional 38 hours. Cells not treated with 1H5 were used as a control. Alamar Blue (10% of the well volume) was added aseptically. Cultures containing Alamar Blue were incubated for 6 hours, and cell proliferation was measured spectrophotometrically by absorbance at 570 and 600 nm. Cell viability was calculated using the following formula:
O1=molar extinction coefficient (E) of oxidized alamarBlue® (Blue) at 570 nm, O2=E of oxidized alamarBlue® at 600 nm, A1=absorbance of test wells at 570 nm, A2=absorbance of test wells at 600 nm, P1=absorbance of positive growth control well (cells plus AamarBlue® but no test agent) at 570 nm, P2=absorbance of positive growth control well (cells plus AlamarBlue® but no test agent) at 600 nm (O'Brien et al., 2000).

For another data set, the target named is T1, ADAM10 D+C (b) (Bos taurus, UniProt Q10741).
T1 construct: the D+C domains (455-646) were cloned, expressed and purified from HEK293 cells; Fc-tag (C, cleaved yes); made in house; host or cells: HEK293 cells
T1 sequence (Q10741 455-646): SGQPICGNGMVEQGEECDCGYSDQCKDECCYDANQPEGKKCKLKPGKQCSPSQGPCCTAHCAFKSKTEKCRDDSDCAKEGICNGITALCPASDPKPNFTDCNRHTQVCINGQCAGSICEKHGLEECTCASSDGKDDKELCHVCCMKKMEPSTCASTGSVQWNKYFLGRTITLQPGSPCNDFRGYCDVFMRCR
Nature of the data set: Pull-down with protein A Sepharose bead-bound mAb. The class given is binding, bovine. From the text: Panels A-C show characterization of the fully human 1H5 Fab. […] [Lane 1: Low molecular weight standards (Bio-Rad). Lane 2: bead bound murine 8C7 immunoglobulin G (IgG)+ADAM10 D+C. […] Lane 4: bead bound ADAM10 D+C without any pre-bound mAb. Lane 5: ADAM10 D-f-C input]

B1: 1H5: fully human anti-ADAM10 antibody clone; heavy chain SEQ ID NO: 14, light chain SEQ ID NO: 15 (antibody)
heavy: QVQLVESGGGLVKPGGSLRLSCAASGFTFSDYYMSWIRQAPGKGLEWVSYISSSGSTIYYADSVKGRFTISRDNAKNSLYLQMNSLRAEDTAVYYCARDFYDSKIFDYWGQGTLVTVSS[human IgG1 constant region left out]
light: DIQMTQSPSSLSASVGDRVTITCRASQSISSYLNWYQQKPGKAPKLLIYAASSLQSGVPSRFSGSGSGTDFTLTISSLQPEDVGVYYCMEGLKTPFTFGPGTKLEIKRTVAAPSVFIFPPSDEQLKSGTASVVCLLNNFYPREAKVQWKVDNALQSGNSQESVTEQDSKDSTYSLSSTLTLSKADYEKHKVYACEVTHQGLSSPVTKSFNRGEC
For the molecule B1, the “cleaved notch levels versus untreated control” value in the data set with Notch1 in COLO205 cells is on record as “significant decrease”. Moreover, the “total notch levels versus untreated control” value in the data set with Notch1 in COLO205 cells was “did not significantly differ”. Further, in data set [1] (first study), the “toxicity (mouse weight, visible diarrhea)” value is listed as “no toxicity effects in animals”. In data set [1] (first study, 1H5 30 mg/kg i.p. biweekly, irinotecan 20 mg/kg i.p. once a week), the tumor growth inhibition was 54%. The “tumor growth inhibitory effect” value in data set [1] (second study, 10 mg/kg i.p. biweekly) came to 26%; in data set [1] (second study, 20 mg/kg i.p. biweekly) it was 64%. Further, in data set [1] (second study, both doses (10 and 20 mg/kg)), the “weight of the mice” value is given as “did not affect the weight of the mice”. Further, the inhibition with LIM1215 is recorded as 60-70%. For the same molecule, in the data set with ADAM10 D+C (b), the “binding of ADAM10 D+C to bead-bound mAb” value was “binds”.
